Assay results reported in PubChem BioAssay AID504832 (National Center for Advancing Translational Sciences (NCATS), 2011).
In all, about 310,000 compounds went through this assay and about 18,000 (5.8%) were called active. Inconclusive results, whose numbers are uncertain, are shown with a selection of clear calls. Calls come from the whole dose curve; as a rule, active = well fitted inhibition curve with a large enough effect; inconclusive = small, poorly fitted or top-dose-only effect, or another doubt; inactive = no such curve, though single readings can be large or run the other way. No potency is given beside an inconclusive call; the fits are too rough.

assay: Primary qHTS for delayed death inhibitors of the malarial parasite plastid, 48 hour incubation; details: P. falciparum luciferase growth in erythrocytes; series mostly up to 28.7 µM; activity change, negative = inhibition: at the top concentration
Method in brief: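 Erythrocytes infected with P. falciparum carrying an integrated firefly luciferase reporter (2% hematocrit, 0.1% parasitemia final) were exposed to compounds in RPMI 1640 with 0.5% Albumax at 37 C, 5% CO2. Growth inhibition was scored as reduced luminescence.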
% is set by controls: 0 for no effect and ±100 for the full control effect; potency is the fitted concentration of half-maximal effect; tags give direction and shape of the fitted curve.

SMILES	activity change, negative = inhibition	Potency
COc1cc(NC(=O)C2CC(c3ccccc3O)=NO2)c(OC)cc1Cl (centres undefined)	inactive: -5.06%	
CN(CC(=O)Nc1ccccc1Br)CC(=O)NC(c1ccccc1)c1ccccc1		inconclusive [inhibitor, single point]
O=S(=O)(c1ccc(C(F)(F)F)cc1)N1CCN(CCOc2ccccc2)CC1		inconclusive [inhibitor, single point]
COc1ccc(/C(C)=N/NC(=O)Cn2nc([N+](=O)[O-])cc2C)cc1		inconclusive [inhibitor, full curve]
Cc1cc(NC(=O)CN2CCCC2c2nc3ccccc3s2)no1 (centres undefined)		inconclusive [inhibitor, single point]
CCOC(=O)N1CCC(NC(=O)c2cc(C(=O)Nc3ccc(OC)c(OC)c3)ccc2CO)CC1	inactive: -4.64%	
O=C(c1ccc2c(c1)N(Cc1ccccc1)C(=O)CS2)N1CCOCC1	inactive: -2.07%	
CCN(CC)CCN1C(=O)c2oc3ccccc3c(=O)c2C1c1ccccc1 (centres undefined)		inconclusive [inhibitor, full curve]
C[C@]12CC[C@@H]3c4ccc(O)cc4C[C@@H](CCCCCCCCCS(=O)CCCC(F)(F)C(F)(F)F)C3[C@@H]1CC[C@@H]2O (some centres undefined)		active: 9.53 µM
CCCNC(=S)NC1CC2CCC(C1)N2Cc1ccccc1 (centres undefined)		inconclusive [inhibitor, single point]
COc1ccc(NC(=O)CC2S/C(=N\c3nccs3)N(C)C2=O)cc1 (centres undefined)	inactive: 17%	
CN(C(=O)COC(=O)Cc1c(Cl)cccc1Cl)c1c(N)n(Cc2ccccc2)c(=O)[nH]c1=O		inconclusive [inhibitor, partial curve]
CCN1CCN(c2nc(S(=O)(=O)c3ccc(C)cc3)c(Cl)s2)CC1		inconclusive [inhibitor, partial curve]
COc1ccc(C(=O)Nc2nnc(-c3ccc(F)cc3)s2)c(OC)c1	inactive: 32.1%	
O=C(Cc1c[nH]c2ccccc12)N/N=C/c1cccc(F)c1		inconclusive [inhibitor, partial curve]
N#CCC(=O)N/N=C/c1cc(Br)ccc1OCc1cccc2ccccc12		active: 13.1 µM
CC1=C(C(=O)NC2CCCC(C)C2C)C2(CCCCC2)OC1=O (centres undefined)		inconclusive [inhibitor, single point]
Cc1ccc(CNC(=O)C2CCC(=O)N2Cc2ccc(C)cc2)cc1 (centres undefined)	inactive: -2.54% [at 0.00184 µM]	
CN1C2CCC1CC(NC(=O)CSCc1ccc(Cl)cc1Cl)C2 (centres undefined)		inconclusive [inhibitor, single point]
C[N+]12CCC(CC1)C(=C(c1ccccc1)c1ccccc1)C2		active: 0.738 µM
COC(=O)C1=C(C)N(C(C)c2ccccc2)C(=O)/C1=C\c1ccco1 (centres undefined)		inconclusive [inhibitor, partial curve, poor fit]
CCCCn1c(O)c(C(C)=Nc2c(C)n(C)n(-c3ccccc3)c2=O)c(=O)[nH]c1=O	inactive: 9.34%	
NC(=O)NC(=O)Nc1ccccc1Cl	inactive: 29.9%	

SMILES	activity change, negative = inhibition	Potency
Nc1c(S(=O)(=O)c2cccs2)c2nc3ccccc3nc2n1CC1CCCO1 (centres undefined)		inconclusive [inhibitor, partial curve]
O=C(Nc1ccccc1)c1ccc(-n2cnnn2)cc1	inactive: 43.6%	
COc1cc(OC)cc(C(=O)Nc2cc(C)nn2-c2ccccc2)c1		inconclusive [inhibitor, full curve, poor fit]
Cc1nn(C)cc1C1C2=C(CC(C)(C)CC2=O)OC2=C1C(=O)CC(C)(C)C2	inactive: -23.4%	
COCCN1CN(S(=O)(=O)c2cccc(Cl)c2)c2nc3ccccc3nc21		inconclusive [inhibitor, partial curve]
Cc1cc(C)cc(NC(=O)COc2coc(CN3CCc4ccccc43)cc2=O)c1		inconclusive [inhibitor, partial curve]
Cc1ccc2nc(NC(=O)C3CCN(S(=O)(=O)c4cccs4)CC3)sc2c1		inconclusive [inhibitor, partial curve, poor fit]
CC(C)c1ccc(NC(=O)C2CCN(S(=O)(=O)c3ccc4c(c3)C(C)(C)C(=O)N4C)CC2)cc1		inconclusive [inhibitor, partial curve, poor fit]
CCCCN1C(=O)C2C(C(=O)Nc3cccc(OC)c3)C3C=CC2(O3)C1C(=O)NC1CCCCC1C (centres undefined)		inconclusive [inhibitor, partial curve]
COc1ccc(-n2c(SCC(=O)N3CCCCC3C)nnc2-c2cccnc2)cc1 (centres undefined)		inconclusive [inhibitor, single point]
COc1ccc(N2CCN(C(=O)C(NC(=O)c3c(F)cccc3F)C(C)C)CC2)cc1 (centres undefined)		inconclusive [inhibitor, single point]
Cc1occc1-c1nnc(SCC(=O)Nc2ccccc2N2CCCCC2)n1C		inconclusive [inhibitor, partial curve]
Cc1cc(C(F)(F)F)nn2cnnc12		inconclusive [inhibitor, full curve, poor fit]
Cc1ccccc1NC(=O)CSc1nc(N)c(C#N)c(-c2cccs2)c1C#N		inconclusive [inhibitor, single point]
COc1ccc(-c2oc3ncnc(NCCCN4CCOCC4)c3c2-c2ccc(OC)cc2)cc1		active: 5.22 µM
CCn1c(Cc2ccccc2)nnc1SCC(=O)Nc1ccccc1F	inactive: -7.05%	
Cc1ccccc1[C@]1(C)ON(c2ccccc2C(F)(F)F)C1=O		active: 1.85 µM
Cc1ccc2c(c1)C1CN(C)CCC1N2C(=O)Nc1cccc(C(F)(F)F)c1 (centres undefined)		active: 9.28 µM
COc1cccc2c1nc(C)c1cc(C)oc12	inactive: 67%	
CCC1(C2=NCCN2)Cc2ccccc2O1 (centres undefined)		inactive
Cc1c(CCOC(=O)c2cc([N+](=O)[O-])cc([N+](=O)[O-])c2)sc[n+]1CCCCS(=O)(=O)[O-]	inactive: 3.56%	
O=C(NCCN1CCCCCC1)C1CCCN1S(=O)(=O)c1cccc2nsnc12 (centres undefined)		active: 1.65 µM
O=C(NN1C(=O)c2ccccc2NC1c1ccc([N+](=O)[O-])o1)c1ccc([N+](=O)[O-])cc1 (centres undefined)		inconclusive [inhibitor, single point]

SMILES	activity change, negative = inhibition	Potency
CCOC(=O)c1cc(CNC(=O)c2c(C)oc3c2CCCC3)c(C)o1		inconclusive [inhibitor, partial curve]
CN(Cc1ccc2c(c1)OCO2)C(=O)c1cc(-c2ccccc2)c(N2CCOCC2)s1		inconclusive [inhibitor, single point]
CC(C)(C)SCCNC(=O)CN(c1ccccc1)S(=O)(=O)c1ccc(F)cc1		inconclusive [inhibitor, full curve]
O=C(N/N=C/c1cc(Br)cc(Br)c1O)c1cccc(S(=O)(=O)N2CCOCC2)c1		inconclusive [inhibitor, partial curve]
C/C(=N\NC(=S)Nc1ccc(C)cc1)c1cc2ccccc2o1		inconclusive [inhibitor, full curve]
COc1ccc(C2=[N+](C)CCn3cccc32)c(OC)c1		active: 2.08 µM
N#C/C(=C/c1cc(Cl)c(O)c(Cl)c1)C(=O)N1CCCCC1		inconclusive [inhibitor, full curve, poor fit]
S=C(NC1CCCCC1)NN(c1ccccc1)c1ccccc1		active: 11.7 µM
COc1cc(C(=O)NCCc2c[nH]c3ccccc23)ccc1OCc1c(C)noc1C		inconclusive [inhibitor, partial curve]
CCOc1ccc(NC(=O)CSc2ccc3nnc(-c4cccnc4)n3n2)cc1		inconclusive [inhibitor, single point]
O=C(O)c1ccc(-n2cc(-c3cc4ccccc4oc3=O)[nH]c2=S)cc1	inactive: 127%	
COc1ccc(NC(=O)CSc2nc(O)cc(=O)n2-c2ccc(OC)cc2)cc1		inconclusive [inhibitor, partial curve, poor fit]
FC(F)(F)c1cccc(CNC(=S)Nc2ccccc2)c1		inconclusive [inhibitor, single point]
COc1ccc2[nH]c(=O)c(CN(CCCN(C)C)C(=O)Nc3ccccc3)cc2c1		inconclusive [inhibitor, single point]
CC(=O)Nc1ccc(NC(=O)c2ccc(COc3ccccc3Br)o2)cc1	inactive: 0.748%	
Cc1c(C(=O)O)cccc1-n1c(C)cc(/C=C(/C#N)C(=O)NCc2ccccc2)c1C		inconclusive [inhibitor, single point]
Cc1cc(N)ccc1N1CCCC1		active: 0.465 µM
O=C(Nc1ccc2c(c1)OCO2)c1n[nH]c(=O)c2ccccc12	inactive: 48.9%	
O=C(Nc1cc(S(=O)(=O)N2CCOCC2)ccc1N1CCOCC1)c1cccc(S(=O)(=O)N2CCCCC2)c1		inconclusive [inhibitor, partial curve]
COC(=O)C1=C(c2ccc(-c3ccccc3)c(F)c2)C[C@@H]2CC[C@H]1N2C(=O)NCCOc1ccc(OC)cc1		active: 7.38 µM
CC1(C)CCSC(/C=C/c2ccccc2)=N1		inconclusive [inhibitor, partial curve, poor fit]
CCOC(=O)NNc1cc(C(F)(F)F)ccn1		inconclusive [inhibitor, single point]
CCc1noc(C)c1C(=O)NNC(=O)c1ccc(Br)cc1		inconclusive [inhibitor, single point]
